We go through 172 sequences from article PMC10668032.

The list shows a part of the results. At the low end of the ranking the order means little.

For this assay, the target named is SIX1 homeodomain (reference allele) (UniProt Q15475). Put plainly: universal protein binding microarray. The note with it: Universal all-10-mer PBM (8x60K, AMADID 030236), 300 nM GST-tagged protein, Alexa Fluor 488 anti-GST; buffer, salt, pH and temperature not stated; high values mean tight binding; most listed sequences are background and not binding sites; double strand, one strand shown.
With AAAAAGTA, the binding signal was -0.0612 E-score. The result for GGTACGGA reads -0.00577 E-score; that for GAACTTAA, -0.194 E-score. Turning to AGGGCCTC, the binding signal is -0.226 E-score. On to GGTACCTA, for which the binding signal was -0.0453 E-score. In the case of TTATACAA, the binding signal is 0.14 E-score.

In the case of AAGAGTGG, the binding signal is -0.179 E-score. For the sequence GACTAGCA, the binding signal is -0.144 E-score.

Consider AGACCACG, for which the binding signal is -0.195 E-score. With ATCGTAGG, the binding signal turned out to be 0.16 E-score.

Turning to GACAGCGA, the binding signal is -0.235 E-score.

GACCTTGC: the binding signal is -0.146 E-score. Consider AGAATGAC, for which the binding signal was -0.0857 E-score. Consider ATTACCAC, for which the binding signal was -0.0185 E-score. Regarding ATCCCCTA, the binding signal came to 0.374 E-score. CAGGCAGG: the binding signal was -0.0188 E-score.

For AGACCCGA, the binding signal stood at 0.196 E-score.

With GCATCTCC, the binding signal is -0.0278 E-score. For AAGGAGGC, the binding signal was -0.158 E-score. The result for AGGTTATG reads -0.0404 E-score; that for GGAAGTAA, -0.077 E-score. To AGTTGCCA belongs -0.113 E-score. AGTCGGAA: the binding signal is -0.128 E-score.

Regarding AGAACGTG, the binding signal is -0.225 E-score.

Regarding GCGGTGCA, the binding signal was -0.136 E-score. To GCGTTATA belongs 0.0795 E-score.

For the sequence ACAATAGC, the binding signal is -0.0366 E-score. To CTACGATC belongs 0.233 E-score; to ATATAGGC, 0.123 E-score; to ACAGGCTA, 0.127 E-score. To CTATCGCA belongs 0.186 E-score; to ACGTGACT, -0.158 E-score.

Regarding ATCCGCCC, the binding signal was 0.373 E-score. Consider AGTCGGAC, for which the binding signal is -0.315 E-score. On to ACTTTAAC, for which the binding signal is -0.207 E-score. To CGTTTTCC belongs -0.242 E-score; to TAACCTCA, -0.0879 E-score. To CCAAAGTA belongs -0.0318 E-score; to ACATGAGC, 0.00468 E-score. On to CCTGCTCC, for which the binding signal was -0.0184 E-score.

For CGATCCTA, the binding signal is 0.299 E-score.

Regarding CCTTAGTA, the binding signal was -0.0275 E-score. Turning to GTTCATTA, the binding signal came out at 0.0318 E-score. To GAGTAGCA belongs -0.0232 E-score; to ATTACATG, 0.124 E-score. In the case of AAGGCGCT, the binding signal is -0.198 E-score. To AGCGTCGA belongs -0.1 E-score. Consider GAGGCTAA, for which the binding signal was -0.228 E-score.

For AAGATAGG, the binding signal is 0.0472 E-score.

In the case of TATCGGCA, the binding signal worked out at 0.244 E-score.

Regarding AGAATGCC, the binding signal is -0.146 E-score. To CTTTCCTC belongs -0.263 E-score; to CCACAGTC, -0.193 E-score.

On to GAACTTTA, for which the binding signal is -0.245 E-score. Turning to CTACGTAA, the binding signal was -0.126 E-score. As to AGTTGAGA, the binding signal turned out to be 0.00191 E-score. To CCGAGATA belongs 0.287 E-score. In the case of GCAAGCCA, the binding signal is -0.103 E-score. Consider TGTGACAA, for which the binding signal is -0.162 E-score. Consider ACGAAACG, for which the binding signal was -0.149 E-score. Regarding AGGCATCA, the binding signal amounted to 0.0478 E-score.

On to CCAACACC, for which the binding signal worked out at 0.291 E-score.

Take AGACAACA: the binding signal is -0.172 E-score. As to GTACTATA, the binding signal was determined as 0.165 E-score. The result for ACACTCGT reads -0.0555 E-score. To ACCTTGCG belongs -0.0646 E-score; to ACAGTACC, -0.105 E-score; to CTATCAGA, 0.271 E-score.

In the case of ACGCACCC, the binding signal is -0.0669 E-score. As for CCACACAC, the binding signal is 0.105 E-score. For the sequence CTAACAAA, the binding signal was -0.136 E-score. Take ATCCGGAA: the binding signal turned out to be 0.295 E-score. In the case of GTCACAAA, the binding signal was -0.202 E-score. In the case of GAACGATC, the binding signal worked out at 0.236 E-score. The result for CCCGAACG reads -0.0842 E-score; that for ATGACCAA, 0.0234 E-score; that for CATCTTGG, -0.0813 E-score. As to ACCGAGAA, the binding signal amounted to 0.00744 E-score. For AGACGGCA, the binding signal is 0.197 E-score. On to ACTACATA, for which the binding signal was -0.104 E-score.

Consider CTATGGTC, for which the binding signal was -0.0624 E-score.

Consider CCGAGGAG, for which the binding signal was 0.134 E-score. To GAGAATCC belongs 0.0755 E-score; to AGAAAACA, -0.157 E-score; to AGAGATCG, 0.255 E-score. Consider GACCTCAC, for which the binding signal is -0.032 E-score. For the sequence CGAGTTCC, the binding signal was -0.101 E-score. In the case of ACTATGTA, the binding signal is -0.0247 E-score.

In the case of AATCGTCG, the binding signal is -0.17 E-score. For GTTTCGTA, the binding signal came to 0.124 E-score. To GACATCGC belongs -0.233 E-score; to CCATCGCA, -0.177 E-score; to GTTATTAA, -0.0714 E-score. Turning to CCCCCGTA, the binding signal was 0.189 E-score. To CGGACTGC belongs -0.211 E-score; to CTTACGAC, -0.19 E-score. The result for AAGATTTG reads -0.271 E-score; that for CCGCTCCG, 0.00741 E-score; that for CCATTGCC, -0.172 E-score. The result for CTATTAGC reads 0.0693 E-score; that for GCATAGAC, -0.033 E-score. Consider ATAATTAA, for which the binding signal was 0.0287 E-score. ATAGTATC: the binding signal worked out at 0.426 E-score. The result for TCGACCGA reads -0.034 E-score; that for CTATCATC, 0.34 E-score.

On to AGGTAGGG, for which the binding signal was -0.0104 E-score. The result for CCTGTCCA reads -0.215 E-score; that for CAGCTCAG, -0.0188 E-score. To ACCCTAGT belongs -0.0472 E-score. On to GGGCACAC, for which the binding signal is 0.136 E-score.

Consider GCCGTCTA, for which the binding signal worked out at 0.132 E-score.

For TATTCTAA, the binding signal is 0.13 E-score. To CGCGATTA belongs 0.0604 E-score. To ATACCGAA belongs 0.329 E-score; to CGGTATAG, 0.216 E-score; to CAGTAAGG, -0.107 E-score. With CATGCAGG, the binding signal was -0.0642 E-score.

ACCCGCCG: the binding signal came to 0.212 E-score.

As for GAGGATCA, the binding signal was 0.369 E-score. The result for CAAAGGGG reads 0.124 E-score. The result for ATCACATC reads 0.284 E-score; that for TCTTAACA, -0.11 E-score. In the case of AAATAGAC, the binding signal was 0.139 E-score.

Take ATTAGGGA: the binding signal turned out to be 0.0337 E-score.

Regarding TATCGCAA, the binding signal came out at 0.33 E-score. As to TCTATCCA, the binding signal was determined as 0.101 E-score.

For AACAGGTT, the binding signal is -0.154 E-score. As for TAAAAGTA, the binding signal is -0.0867 E-score. For the sequence AAGAGGCT, the binding signal was -0.27 E-score.

For the sequence ACTTCCAG, the binding signal is -0.185 E-score. To CCTAGCGA belongs -0.205 E-score; to ATATAGAC, 0.116 E-score; to AGTAATAT, 0.236 E-score.

In the case of CCACGAGG, the binding signal was -0.129 E-score.

ACACTAGT: the binding signal amounted to 0.128 E-score.

Consider ACACCCAC, for which the binding signal came out at 0.221 E-score. On to GGGCCTTA, for which the binding signal was -0.269 E-score.

Consider AAGCCAAA, for which the binding signal was -0.268 E-score. The result for CGCTCTAA reads -0.14 E-score; that for AGATTGCT, 0.141 E-score.

CTTGGATA: the binding signal is 0.236 E-score.

As to GTTGAACA, the binding signal is -0.138 E-score. For AACTCGCT, the binding signal is -0.0391 E-score. GTATCCAC: the binding signal amounted to 0.395 E-score. As for GGACCTTA, the binding signal is -0.122 E-score. The result for ACTACACC reads 0.336 E-score. To AACAGCCG belongs -0.172 E-score. To CCAGAACG belongs -0.0567 E-score. In the case of AAAATCAT, the binding signal is 0.0422 E-score. Take CAAGATGG: the binding signal is -0.136 E-score.

With AAAGGATA, the binding signal came out at 0.334 E-score. To ATCGAGCA belongs -0.00513 E-score. As to AACAAGGT, the binding signal is -0.122 E-score. To AAAACGGC belongs -0.135 E-score.

Consider AGCTTGTG, for which the binding signal was -0.0614 E-score. Regarding CTATTGGA, the binding signal is -0.0185 E-score. Regarding TCGGTAGA, the binding signal was determined as 0.0154 E-score. The result for ATAATACG reads 0.385 E-score; that for CATGCTTC, -0.11 E-score; that for AAGTTTTA, -0.178 E-score. Consider ACGTATCC, for which the binding signal was 0.377 E-score. The result for AAGTGAGG reads -0.144 E-score. To GGGGCCTA belongs -0.0563 E-score; to CGTCCCCC, -0.144 E-score. To GGTGCTCA belongs -0.109 E-score; to GGCCAAAC, -0.226 E-score. In the case of GCCTTGTA, the binding signal was -0.202 E-score.

As for ATATTTTA, the binding signal turned out to be 0.0479 E-score. Consider ACCGACCC, for which the binding signal was 0.0779 E-score. As to CACATGAA, the binding signal was 0.00571 E-score. To GCGCTACA belongs -0.201 E-score; to CACGACCC, 0.0737 E-score.
